In all, about 420,000 compounds went through this assay and about 64,000 (15%) were called active. The shares of active, inactive and inconclusive entries below differ from those in the screen. The call rests on the fitted dose curve; in most records, active means well fitted inhibition curve with a large enough effect; inconclusive means small, poorly fitted or top-dose-only effect; inactive means flat fitted curve, though single readings scatter. No potency is given beside an inconclusive call; the fits are too rough.
Assay: qHTS for Inhibitors of human tyrosyl-DNA phosphodiesterase 1 (TDP1): qHTS in cells in absence of CPT; further: nearly all actives have a fitted effect of over 55% in size
Conditions: DT40 Tdp1-/- hTDP1 cells, no CPT, ATP luminescence, 48 h; activity change, negative = growth inhibition: at 46.2 µM (top of the series) unless noted
Summary of the method: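 No-CPT arm: Tdp1-/-;hTDP1 DT40 cells (400/well) plus compounds, incubated ≥48 hr at 37 °C. Readout CellTiter-Glo luminescence.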
On the % scale 0 is the no-effect control and ±100 the full control effect; potency means the concentration at half of the fitted maximal effect; tags describe the fitted curve by direction and shape.

| Structure (SMILES) | Potency | activity change, negative = growth inhibition |
| --- | --- | --- |
| N#Cc1c(-c2ccccc2)cc(-c2ccccc2)nc1SCCC(=O)O | inconclusive [inhibitor, single point] |  |
| CCOc1cc(C(=O)Nc2ccc3oc(-c4ccc(CC)cc4)nc3c2)cc(OCC)c1OCC | active: 8.2 µM |  |
| C/C(=N\N=C(N)N)c1cccc(Cl)c1 | active: 8.2 µM |  |
| Cc1cccn2c(CN[C@@H]3CCCC[C@H]3c3ccccc3)c(C(=O)N3CCOCC3)nc12 | inconclusive [inhibitor, partial curve] |  |
| O=C(CCC1CCCN(C(=O)c2ccsc2)C1)NCc1ccc(F)c(F)c1 (stereo unspecified) | inconclusive [inhibitor, single point] |  |
| Cc1nccn1-c1ccc(NC(=O)[C@H]2O[C@@H](n3ccc(N)nc3=O)[C@H](O)[C@@H]2O)cc1 |  | inactive: -17.4% |
| CC1=C(C(=O)N(C(C)C)C(C)C)CC(CC(=O)NCc2cccs2)C(=O)N1CCC1=CCCCC1 (stereo unspecified) | inconclusive [inhibitor, single point] |  |
| O=C(COC(=O)/C=C/c1ccc(S(=O)(=O)N2CCOCC2)cc1)NCc1ccccc1 | active: 13 µM |  |
| Cc1ccc(-n2ncc3c2CC(C)(C)CC3NC(=O)CCc2c(C)noc2C)cc1 (stereo unspecified) |  | inactive: -27.3% |
| O=C(NC1CCCC1)c1cc2nc(-c3ccccc3)cc(-c3ccccc3)n2n1 | inconclusive [inhibitor, single point] |  |
| CCC(C)c1ccccc1N1CC(C(=O)Nc2ccccc2N2CCCC2)CC1=O (stereo unspecified) | inconclusive [inhibitor, partial curve] |  |
| COc1cccc(C(=O)NC2CCCc3c2cnn3-c2cc(C)cc(C)c2)c1 (stereo unspecified) |  | inconclusive: -31.1% [inhibitor] |
| Cc1onc(-c2c(F)cccc2Cl)c1C(=O)OCC(=O)NC(c1ccccc1)c1ccccc1 | inconclusive [inhibitor, single point] |  |
| CCOC(=O)c1cc(-c2ccc(F)cc2)n(CCC(=O)NC2CCN(Cc3ccccc3)CC2)c1C | active: 14.6 µM |  |
| C=CCOc1ccc(C2CC(C)=NN2c2ccccc2)cc1 (stereo unspecified) | inconclusive [inhibitor, single point] |  |
| Cc1ccc(NC(=O)c2ncn(CCCN(C)CCc3ccccn3)n2)cc1C |  | inactive: -22.2% |
| COC(=O)c1ccc(CNC(=O)c2cc(S(=O)(=O)NCc3ccccc3)ccc2C)cc1 | inconclusive [inhibitor, single point] |  |
| CCOC(=O)c1sc2cc([N+](=O)[O-])cc(SCC(=O)OC)c2c1N |  | inactive: -29.1% |
| COc1ccccc1CNC(=O)C(NS(=O)(=O)c1cccc2nsnc12)C(C)C (stereo unspecified) |  | inactive: 25.9% |
| COc1cc2c(cc1OC)CN(C(=O)CSC1=NCCS1)CC2 | active: 20.6 µM |  |
| COc1cc(NC(=S)N2CCN(c3ccccn3)CC2)cc(OC)c1OC |  | inactive: -23.1% |
| COc1ccc(N(CC(=O)N2CCN(c3ccc(Cl)cc3)CC2)S(=O)(=O)c2c(C)noc2C)cc1 | inconclusive [inhibitor, single point] |  |
| S=C1NCCOCCOCCOCCNC(=S)N2CCOCCOCCN1CCOCCOCC2 |  | inactive: -14.5% |
| Cc1noc(/C=C/c2ccco2)c1S(=O)(=O)N1CCC(C(=O)Nc2ccc(F)cc2F)CC1 | inconclusive [inhibitor, partial curve] |  |

| Structure (SMILES) | Potency | activity change, negative = growth inhibition |
| --- | --- | --- |
| NC(=O)CSc1nc2cc(S(=O)(=O)N3CCOCC3)ccc2o1 |  | inactive: -3.23% |
| Brc1c(-c2ccccc2)nc2n1Cc1ccccc1-2 | inconclusive [inhibitor, partial curve] |  |
| CSc1ccccc1NC(=O)COc1ccc(Cl)cc1C | inconclusive [inhibitor, single point] |  |
| Cc1ccc(C(=O)N2CCN(c3ccccn3)CC2)cc1Cl |  | inactive: -24.1% |
| Cc1ccc(C)c(C(Nc2ccccc2)c2ccc3ccc(C)nc3c2O)c1 (stereo unspecified) | active: 18.4 µM |  |
| Cc1ccc([N+](=O)[O-])cc1N/C=C1\CCCCC1=O | inconclusive [inhibitor, single point] |  |
| O=[N+]([O-])c1ccccc1S(=O)(=O)N1CCCC(C(F)(F)F)C1 (stereo unspecified) | inconclusive [inhibitor, single point] |  |
| CC1Cc2ccccc2N1C(=O)CSc1nc(-c2ccccc2)cs1 (stereo unspecified) | active: 25.9 µM |  |
| COc1ccc(N2C(=NC(=O)C(C)Oc3ccccc3)SC3CS(=O)(=O)CC32)cc1 (stereo unspecified) |  | inactive: 21.7% |
| Cc1cc(=O)oc2cc(OCc3cc4c(cc3Cl)OCO4)ccc12 | inconclusive [inhibitor, partial curve] |  |
| Cc1ccc(C(=O)N/C(=C\c2cccs2)C(=O)NCCc2c[nH]c3ccccc23)cc1C | inconclusive [inhibitor, single point] |  |
| CCN1CCN(C(=O)CCc2nnc(CCc3ccc(OC)cc3)o2)[C@@H](C)C1=O |  | inactive: 2.52% |
| Cc1ccc(S(=O)(=O)NCC2CCC(C(=O)NCCCN3CCCC3=O)CC2)cc1 (stereo unspecified) |  | inactive: 29.9% |
| O=C(Nc1cc(C(F)(F)F)ccc1Cl)c1cc(S(=O)(=O)NCc2ccccc2)ccc1F | inconclusive [inhibitor, single point] |  |
| Cc1ccc(C(=O)NC2CCC(C)CC2)s1 (stereo unspecified) |  | inactive: -18.7% |
| CCOC(=O)c1cccc(NC(=O)Cn2c(=O)nc(-c3ccccc3)c3ccccc32)c1 | inconclusive [inhibitor, single point] |  |
| Cc1cccc(OCc2ccc(-c3nc(C#N)c(N4CCC(C(N)=O)CC4)o3)o2)c1 | inconclusive [inhibitor, partial curve, poor fit] |  |
| CC(C)(Oc1ccc(Cl)cc1)C(=O)NCCCn1ccnc1 |  | inactive: -12% |
| CN1CCN(/N=C/c2ccc(Cl)c(Cl)c2)CC1 | inconclusive [inhibitor, full curve, poor fit] |  |
| COc1ccc(Br)cc1/C=N/NC(=O)CN1CCCCC1 | inconclusive [inhibitor, single point] |  |
| Fc1ccc(NCc2cn3ccccc3n2)cc1 |  | inconclusive: -34.3% [inhibitor] |
| O=C(O)c1cc2cccc(S(=O)(=O)N3CCCCC3)c2cc1O |  | inactive: -3.88% |
| COc1ccc(OC)c(C(C)NC(=O)c2ccco2)c1 (stereo unspecified) | inconclusive [inhibitor, single point] |  |
| CCOC(=O)CC(c1ccc(N)cc1)n1c(C)ccc1C (stereo unspecified) | inconclusive [inhibitor, partial curve, poor fit] |  |

| Structure (SMILES) | Potency | activity change, negative = growth inhibition |
| --- | --- | --- |
| O=C(Nc1ccn(CCCN2CCN(c3ccccc3)CC2)c(=O)n1)OCc1ccccc1 | active: 14.6 µM |  |
| Cc1ccc(OCC(=O)Nc2ccc3nc(SCc4ccccc4)sc3c2)cc1 |  | inconclusive: -36% [inhibitor] |
| Cc1c(Cl)cccc1-c1ccc(C(=O)N2CCN(c3ccc([N+](=O)[O-])cc3)CC2)o1 | active: 25.9 µM |  |
| CCOC(=O)c1cccc(NC(=O)CC2C(=O)N(c3ccc(F)cc3)C(=O)N2C(C)C)c1 (stereo unspecified) | inconclusive [inhibitor, single point] |  |
| COc1ccc(OCCSc2ccc(S(=O)(=O)N3CCCC3)cn2)cc1 |  | inconclusive: -31.2% [inhibitor] |
| O=C(CN1C(=O)S/C(=C\c2cccc(Cl)c2)C1=O)NCCCn1ccnc1 | inconclusive [inhibitor, single point] |  |
| COc1ccccc1OC(C)C(=O)Nc1ccccc1C(=O)NCc1cccnc1 (stereo unspecified) |  | inactive: -5.28% |
| O=C(NCc1ccc(F)cc1)C(=O)NCC1OCCN1C(=O)c1ccc(Cl)cc1 (stereo unspecified) | inconclusive [inhibitor, single point] |  |
| C=CCn1c(O)c(N=NC(=O)CNC(=O)/C=C/c2ccco2)c2ccccc21 |  | inactive: -11.7% |
| COc1ccc(NC(=O)NCCCCc2ccccc2)c(OC)c1 |  | inactive: 16.7% |
| CCn1nc(NC(=O)Cc2ccc(OC)cc2)c2cc3cccc(C)c3nc21 |  | inconclusive: -37.1% [inhibitor] |
| COc1c(N2CCN(C(=S)Nc3ccccc3F)C(C)C2)c(F)cc2c(=O)c(C(=O)O)cn(C3CC3)c12 (stereo unspecified) | inconclusive [inhibitor, partial curve] |  |
| CCOC(=O)COc1cccc2c(=O)n(CC(N)=O)ccc12 |  | inactive: 28.9% |
| CN(Cc1cccs1)C(=O)CCCc1c[nH]c2ccccc12 | inconclusive [inhibitor, single point] |  |
| CC(=O)Nc1cccc(NC(=O)c2ccc([N+](=O)[O-])cc2Cl)c1 | inconclusive [inhibitor, partial curve, poor fit] |  |
| O=C(Nc1ncc(Cc2cccc([N+](=O)[O-])c2)s1)c1ccco1 | inconclusive [inhibitor, single point] |  |
| COc1ccc(NC(=O)C(Cc2ccccc2)NS(=O)(=O)c2ccc(Br)s2)cc1OC (stereo unspecified) | inconclusive [inhibitor, single point] |  |
| CCC(=O)Nc1ccc(C(=O)n2nc(C)cc2C)cc1 | inconclusive [inhibitor, single point] |  |
| CCOC(=O)N1CCN(C(=O)C2CCN(S(=O)(=O)c3c(C)cc(C)cc3C)CC2)CC1 | active: 18.4 µM |  |
| CCc1cc(C(=O)N2CCCC(C(=O)c3ccc(OC)c(F)c3)C2)n(C)n1 (stereo unspecified) | inconclusive [inhibitor, partial curve] |  |
| O=c1[nH]c(SCc2nc3ccccc3c(=O)n2-c2ccccc2C(F)(F)F)nc2ccccc12 | inconclusive [inhibitor, single point] |  |
| O=C(Nc1ccc2ccccc2c1)Nc1ccc2snnc2c1 | inconclusive [inhibitor, single point] |  |
| Cc1ccc(S(=O)(=O)Nc2cccc(C(=O)NCC(c3ccco3)N(C)C)c2)cc1F (stereo unspecified) | active: 20.6 µM |  |

Reference: PubChem BioAssay AID686978 (National Center for Advancing Translational Sciences (NCATS), 2013)
